# Source: PMC4336329 (PLoS ONE, 2015)
# Screen size: about 310,000 compounds; about 2,200 (0.71%) showed an effect of 50% or more. Effects have a minus sign here. This is one part of the list.
# Target: human ether-à-go-go-related gene (hERG) potassium channel (human, UniProt Q12809)
# Assay: primary screen, population patch clamp on CHO cells stably expressing hERG
# Chain of human ether-à-go-go-related gene (hERG) potassium channel (Q12809 whole entry, looked up): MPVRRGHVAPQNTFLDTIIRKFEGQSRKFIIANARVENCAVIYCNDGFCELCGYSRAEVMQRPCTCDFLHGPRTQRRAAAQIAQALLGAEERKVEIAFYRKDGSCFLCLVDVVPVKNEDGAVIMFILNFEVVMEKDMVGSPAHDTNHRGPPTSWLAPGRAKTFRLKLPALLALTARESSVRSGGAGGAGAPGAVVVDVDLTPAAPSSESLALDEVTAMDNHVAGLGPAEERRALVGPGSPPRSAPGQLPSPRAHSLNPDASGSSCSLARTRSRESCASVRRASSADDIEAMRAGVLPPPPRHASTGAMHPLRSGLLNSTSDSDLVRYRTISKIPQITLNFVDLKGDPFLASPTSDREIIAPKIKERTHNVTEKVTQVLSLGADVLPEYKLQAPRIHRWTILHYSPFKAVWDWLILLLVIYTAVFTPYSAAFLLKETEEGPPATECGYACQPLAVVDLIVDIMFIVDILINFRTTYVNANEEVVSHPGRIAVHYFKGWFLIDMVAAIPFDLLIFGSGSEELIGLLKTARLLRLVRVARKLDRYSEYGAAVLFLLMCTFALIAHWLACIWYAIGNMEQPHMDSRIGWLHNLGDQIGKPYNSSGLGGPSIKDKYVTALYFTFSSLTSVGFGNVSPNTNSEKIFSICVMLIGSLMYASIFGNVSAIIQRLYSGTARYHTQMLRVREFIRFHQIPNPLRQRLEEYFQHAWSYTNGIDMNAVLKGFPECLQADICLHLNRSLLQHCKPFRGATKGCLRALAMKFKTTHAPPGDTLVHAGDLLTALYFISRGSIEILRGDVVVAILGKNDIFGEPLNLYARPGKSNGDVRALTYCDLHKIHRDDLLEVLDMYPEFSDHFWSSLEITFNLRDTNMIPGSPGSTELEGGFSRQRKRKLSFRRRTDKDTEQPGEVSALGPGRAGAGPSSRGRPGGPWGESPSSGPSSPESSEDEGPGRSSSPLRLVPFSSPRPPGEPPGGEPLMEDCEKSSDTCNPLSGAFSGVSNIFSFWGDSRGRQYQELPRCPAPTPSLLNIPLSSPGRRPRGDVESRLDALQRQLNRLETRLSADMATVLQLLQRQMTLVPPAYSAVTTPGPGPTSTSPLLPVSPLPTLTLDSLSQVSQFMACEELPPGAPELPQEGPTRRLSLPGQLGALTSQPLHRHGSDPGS
row,Structure (SMILES),"hERG current change (%, negative = inhibition) at 1uM [%]"
1,Cc1ncc(CN2CCN(Cc3ccccc3)C(CCO)C2)s1 (centres unmarked),6.04
2,CCn1cc(C(=O)OCC(=O)N2C(C)CCCC2C)c(=O)c2ccc(C)nc21 (centres unmarked),11.6
3,CCOc1ccc(NC(=O)CN(C)C(=O)c2cc(S(=O)(=O)N3CCCCC3)ccc2C)cc1OCC,4.44
4,COc1ccc(Cn2c(C)ccc2C)cc1,11
5,O=C(Nc1ccc(NC(=O)c2cccs2)cc1)c1cccs1,-6.9
6,COc1ccc(CCNc2ncnc3c2nnn3Cc2ccccc2)cc1,14.7
7,Cc1nn(-c2ccccc2)c2sc(C(=O)O)cc12,-2.65
8,CC1(C)Cc2cccc(OCC(=O)NCc3ccccc3)c2O1,11.9
9,Cn1cc(Br)c(C(=O)NNC(=O)Nc2ccccc2C(F)(F)F)n1,12.1
10,NC(=O)c1ccccc1Nc1nc2nc3ccccc3c(=O)n2cc1Br,1.56
11,CCOc1cc(/C=C2\C(=N)N3N=C(N4CCCCC4)SC3=NC2=O)ccc1OC(=O)c1ccco1,16.6
12,CCCCCC(=O)Nc1ccc2oc(-c3cncc(Br)c3)nc2c1,18.1
13,COc1cccc(CN2CCNC(=O)C2CC(=O)NCCOc2cccnc2)c1OC (centres unmarked),12.9
14,Cc1ccccc1NC(=O)c1cc2ccccn2n1,0.459
15,COc1ccc(S(=O)(=O)N2c3ccccc3OCC2C)cc1 (centres unmarked),18
16,Cc1cc(NC(=O)CSc2nc3ccccc3[nH]2)no1,17.2
17,[Cl-].c1ccc(CNc2cccc[nH+]2)cc1,14.1
18,COCCNC(=S)Nc1ccc(Cl)c(Cl)c1,1.58
19,Cn1nnnc1SCC(=O)Nc1nc(-c2ccc(F)c(F)c2)cs1,12.9
20,COc1ccccc1N(C)S(=O)(=O)c1ccc(C(=O)N(CC(N)=O)C(C)C)cc1,10.2
21,CCCCOc1ccc(S(=O)(=O)NCc2csc(C)n2)cc1,4.14
22,Cc1ccc(NC(=O)c2oc3ccccc3c2C)nc1,9.66
23,COCCCNC(=O)c1c(N)n(-c2ccccc2)c2nc3ccccc3nc12,10.1
24,COc1ccc(N2CCN(c3nc(Nc4ccc(C)c(F)c4)nc(N4CCCC4)n3)CC2)cc1,5.24
25,CCOC(=O)c1c(-c2ccccc2)nc2cc(C)ccn12,3.7
26,COc1ccc(-c2cc(C(=O)NCc3cn(C)nc3C)c3ccccc3n2)cc1OC,14.3
